Assay results published in PubChem BioAssay AID903 (National Center for Advancing Translational Sciences (NCATS), 2007).
Among all 55,000 compounds or so, about 340 (0.62%) were called active. The shares of active, inactive and inconclusive entries below differ from those in the screen. Calls follow the shape of the dose curve; as a rule, active = well fitted cell-killing curve with a large enough effect; inconclusive = small, poorly fitted or top-dose-only effect; inactive = no such curve, though single readings can be large or run the other way. A potency beside an inconclusive call is a rough fit, not a confirmed value.

Experiment: qHTS Screen for Compounds that Selectively Target Cancer Cells with p53 Mutations: Cytotoxicity of p53 Null Cells at the Permissive Temperature; also: nearly all actives have a fitted effect of over 55% in size;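 as to activity change, negative = cytotoxicity: 0% = DMSO only and -100% = full killing by 100 µM tamoxifen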
Conditions: H1299-neo p53 null cells, ATP luminescence, 24 h, 32C; series mostly up to 46.1 µM; activity change, negative = cytotoxicity: at the top concentration
Outline: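 Cells lacking p53 (H1299-neo) are plated at 600 per well and allowed to settle overnight at 37C. Test compounds (up to 46 uM) are added and held 24 hours at 32C, then ATP is quantified by luminescence.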
Potency is read from the fitted curve at half-maximal effect; tags tell the direction and shape of the fitted curve.

Row | Structure (SMILES) | Potency | activity change, negative = cytotoxicity
1 | COc1cc(NC(=O)c2ccc3c(Cl)c4c(nc3c2)CCC4)cc(OC)c1OC | inconclusive: 20 µM [cytotoxic, single point] | –
2 | O=C(Nc1nc2n(n1)C(c1ccccc1)C=C(c1ccc(Cl)cc1)N2)c1ccco1 (stereo not drawn) | – | inactive: -1.53%
3 | CCc1ccc(NC(=O)C2C3C=CC(C4CC34)C2C(=O)O)cc1 (stereo not drawn) | inconclusive: 20 µM [cytotoxic, partial curve, poor fit] | –
4 | CCN1CCN(Cc2c(O)ccc3c(=O)c(Oc4ccccc4C(C)C)c(C(F)(F)F)oc23)CC1 | – | inactive: 9.06%
5 | CC1CCCN(CCCNC(=O)c2cc3c(Cl)nc4ccccc4c3s2)C1 (stereo not drawn) | – | inactive: 2.25%
6 | O=C(Nc1ccc2nc(-c3ccco3)[nH]c2c1)c1cccs1 | active: 7.08 µM | –
7 | CCOc1ccc(CNC(=O)c2ccc3c(c2)nc2n3CCCCC2)cc1 | inconclusive: 14.1 µM [cytotoxic, single point] | –
8 | Cc1cc(C)c(S(=O)(=O)NCC(c2ccco2)S(=O)(=O)c2cccs2)c(C)c1 (stereo not drawn) | – | inactive: 11%
9 | Cc1cc(Br)cc2c1N(Cc1ccccc1OC(C)C)C(=O)C2=O | inconclusive: 22.4 µM [cytotoxic, single point] | –
10 | CC(C)c1ccc(NC(=O)c2cnc3sc(N4CCOCC4)nn3c2=O)cc1 | inconclusive: 6.31 µM [cytotoxic, partial curve] | –
11 | Cc1ccc(Cl)cc1N1CCN(C(=O)c2ccc3c(c2)N(Cc2ccccc2)CCS3)CC1 | inconclusive: 5.62 µM [cytotoxic, single point] | –
12 | Fc1ccc(Nc2c(-c3ccccn3)nc3ccc(Cl)cn23)cc1 | – | inactive: 4.51%
13 | COc1ccccc1CNC(=O)Cn1c(=O)oc2cc(S(=O)(=O)N3CCC(C)CC3)ccc21 | inconclusive: 5.62 µM [cytotoxic, single point] | –
14 | COC(=O)C(C)(C)ONC(=O)Nc1ccc(C)cc1 | inconclusive: 35.5 µM [cytotoxic, single point] | –
15 | Cc1ccc2nc(Cl)c3cc(C(=O)N(C)C4CCCCC4)sc3c2c1 | inconclusive: 2.82 µM [cytotoxic, single point] | –
16 | O=C(COC(=O)CSc1cccc2cccc(Cl)c12)Nc1ncc(C(F)(F)F)cc1Cl | inconclusive: 15.8 µM [cytotoxic, partial curve] | –
17 | Cc1c2cnn(CC(=O)NCc3ccccc3)c(=O)c2c(C)n1Cc1cccc(Cl)c1 | – | inactive: 7.58%

Row | Structure (SMILES) | Potency | activity change, negative = cytotoxicity
18 | Oc1ccccc1-c1nc(/C=C/c2ccccc2Cl)no1 | active: 10 µM | –
19 | COc1ccc(OC)c(NC(=O)Cn2cc(S(=O)(=O)c3ccccc3)c(=O)c3cc(C)ccc32)c1 | inconclusive: 2.82 µM [cytotoxic, single point] | –
20 | C=CCNc1nc(-c2cc3ccccc3o2)cs1 | inconclusive: 22.4 µM [cytotoxic, single point] | –
21 | Cc1ccc(CNc2c(C)c(C)nc3nncn23)cc1 | – | inactive: -1.03%
22 | CCOc1ccccc1N1CC(c2nc3ccccc3n2CCCCOc2ccccc2)CC1=O (stereo not drawn) | inconclusive: 22.4 µM [cytotoxic, partial curve, poor fit] | –
23 | CCN1CCN(c2cc(C)c3cc(NC(=O)c4cc(OC)cc(OC)c4)ccc3n2)CC1 | inconclusive: 12.6 µM [cytotoxic, single point] | –
24 | COc1ccc(NC(=O)c2oc3ccccc3c2NC(=O)Cc2ccc(F)cc2)c(OC)c1 | – | inactive: -3.58%
25 | CC1CCN(C(=O)c2ccc(NC(=O)c3nsc4ccccc34)cc2)CC1 | inconclusive: 11.2 µM [cytotoxic, partial curve] | –
26 | CC(C)CN(c1ccccc1)S(=O)(=O)c1nnc(NC(=O)c2ccco2)s1 | inconclusive: 2.51 µM [cytotoxic, full curve] | –
27 | COc1ccc(NC(=O)N2CCc3c(sc4c3CCCC4)C2c2ccc(F)cc2)cc1 (stereo not drawn) | – | inactive: 6.76%
28 | Cc1cccc(C)c1NC(=O)CCCn1c(=O)c2cccn2c2ccccc21 | inconclusive: 31.6 µM [cytotoxic, single point] | –
29 | Cc1ccc(NC(=O)N2CCN(Cc3nc4ccc(C)cc4o3)CC2)cc1 | inconclusive: 5.62 µM [cytotoxic, single point] | –
30 | Cc1ccc2[nH]cc(C(c3ccccc3)c3ccc(Cl)s3)c2c1 (stereo not drawn) | active: 20 µM | –
31 | COc1ccc(S(=O)(=O)Nc2cccc(-c3ccc(N4CCCCC4)nn3)c2)cc1F | active: 12.6 µM | –
32 | Cc1ccc(S(=O)(=O)c2nnn(CC(=O)Nc3ccccc3C)c2N)cc1 | – | inactive: -3.58%
33 | Cc1ccc(NC(=O)Cn2c(=O)n(Cc3ccco3)c(=O)c3sc4ccccc4c32)c(C)c1 | inconclusive: 20 µM [cytotoxic, single point] | –
